Test results as given in the supplement of paper PMC11417369.
Some of the results follow.

test system: PfSIP2 AP2 domain 1 (GST-tagged); test: gcPBM binding intensity (ln(normalized median fluorescence intensity)); higher = stronger DNA binding
Method in brief: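 The binding buffer was 1× PBS containing 1% milk, 0.2 mg/ml BSA, 0.5% salmon testes DNA and 0.03% Triton X-100. In it, GST-tagged P. falciparum DNA-binding domains expressed in E. coli were applied for 1 h to an Agilent 4 × 180k array of primer-extended double-stranded 36-bp intergenic genomic probes plus negative controls. Binding intensity, read with Alexa488 anti-GST antibody and a 488 nm scan, is the highest Masliner-normalised natural-log median intensity across replicate spots of either probe orientation.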

| Sequence | gcPBM binding intensity (ln) |
| --- | --- |
| TATATATATATATTATGTACATATAAATATATTTTT [XGTACX_site1509] | 9.46 |
| TGTAAATATAAAAGATAATGATAAAAGGGACATTTT [CACACA_negctrl_site661] | 6.74 |
| AATATATATATGTGTACACATCCAAAATAGGCATAC [CACACA_site5705] | 7.49 |
| ATCTATATTATAATAACACACATATATTATAGTATA [CACACA_site6330] | 7.02 |
| ATATATATATAAATATGTACATATTTATATATGAAT [XGTACX_site3220] | 8.51 |
| AATATATATTTATGTACACACTCCAATACAGATACA [CACACA_site5481] | 7.43 |
| TGTAAAAAATTTAACACACACATATATAAATATGTA [CACACA_site7261] | 7.08 |
| CATATACATACACATACACACATACACCCATACACA [CACACA_site8514] | 7.33 |
| AGTAAATAATTATATACATGCATTTACTAATATTTA [TGCATGCA_site952] | 6.94 |
| ATATGACGTAGTGGTGTACACACATGGTACCTTTAT [CACACA_site8436] | 7.23 |
| TTCGTTCTTTTATGCACACTCAACATATAAATTAAA [CACACA_site1209] | 8.67 |
| TTATAATATATATGTAGTACTGTTTTTTTCTATTTT [XGTACX_site7749] | 6.83 |
| TGTACAAATATGTACACACACACATATATATATATA [CACACA_site584] | 9.35 |
| TATTATTTTAAAAATGCATGTTCATATGAAATAATA [TGCATGCA_site969] | 7.25 |
| ATACTATTATATATATGTACATATATATGATGCTCT [XGTACX_site1771] | 7.22 |
| AAGGAGCCTATGAACACACACATGTACATATATTAA [CACACA_site4084] | 7.03 |
| TAATTAAGCATAAATATAATTTTATATTTTATTTCC [XGTACX_negctrl_site321] | 6.74 |
| TAACATAGCAATGTTTCACACACAAGAAAAAATACA [CACACA_site8747] | 7.08 |
| TGCAGTCTGGAGAAAAGTACATAGTATCTGGTAGCT [XGTACX_site2547] | 6.89 |
| ATATATGTATATATTTGTACATATAATATTTTTTAA [XGTACX_site6345] | 6.85 |
| ATTTGTAATTTATTCAAACACACAATTTGGACCTTT [CACACA_site1062] | 6.74 |
| TATTCACATACAGAAACACACACATATATATAAATT [CACACA_site9232] | 7.13 |
| TTTGTGTGTGCGTGTGCATGTTGTTTTTTTCTATAA [TGCATGCA_site17] | 7.78 |

| Sequence | gcPBM binding intensity (ln) |
| --- | --- |
| AATATAATAACTTATTGTACGAAATTATATCACCTT [XGTACX_site7883] | 6.86 |
| AGAGAGAGAAATACAAGTACATGTGAAACCAATCTA [XGTACX_site2767] | 6.98 |
| AAAAAATAAAAAAAAACACACACATACAAGCATATA [CACACA_site8451] | 6.91 |
| TTCAACATAATATGCACACAAAAATTATGGAACGAA [CACACA_site2111] | 8.18 |
| AAAAAAAAAAAAATTGCACACAAAAAAAAAAAAAAA [CACACA_site8644] | 7.5 |
| AAAAAAAACAAATACACACGCACACCGAAAAAAAAA [CACACA_site803] | 7.1 |
| CAGACAATAAAGAAGTGTACACATATATCAATAAAA [XGTACX_site4515] | 7 |
| CTTTATCTTCTCACGAAGATTGAATAAGGTATTCTT [XGTACX_negctrl_site307] | 6.6 |
| AAAAAAAAAAAACACACACACACACCCACAAAATAT [CACACA_site1447] | 7.15 |
| AAAAAAAAATACCTACGTACATATATATATTATATA [XGTACX_site3983] | 7.38 |
| TTAATGCACTTTATTACACACACTAGTTCATTACCT [CACACA_site2294] | 8.54 |
| TATATTATAATTTGAAGTACATTTTAAATTAACTAA [XGTACX_site1013] | 6.99 |
| ATATAATAGTATATATGTACATATATTTAAATACTA [XGTACX_site1135] | 7.02 |
| TATTTTATAAATACAAGTAAAATTAAATATATAATA [XGTACX_negctrl_site221] | 6.83 |
| AGGAGGATATTACACAGTACCCAGGAAATCTACGGA [XGTACX_site4878] | 6.82 |
| TTGTACTACAATCCTTTATTTATTTAAACCTGTATG [CACACA_negctrl_site428] | 7.01 |
| TATATAAATAGACACACACACACATATAAATAAATA [CACACA_site7855] | 7.1 |
| TTTCAATGCATAAAAGTGCGCAATAATTTAAAGATC | 8.56 |
| AAAAAAAAATAAAATAAAATAAAATAAAATAATATA [CACACA_negctrl_site1798] | 6.76 |
| AAACAAATGTACAAAGTGCATATTTTTTTCAAAAGG | 8.11 |
| ACATATGTATAATAATGTACGCATTAAATATAATTA [XGTACX_site7851] | 6.98 |
| ATAATATATATTAATACACACACACCGATATATATA [CACACA_site9261] | 7.44 |
